# Reference: article PMC6664820, “Novel natural and synthetic inhibitors of solute carriers SGLT1 and SGLT2” (Pharmacology Research & Perspectives, 2019)
# The entries are a selection whose mix differs from that of the whole data set.
# Biological target: human SGLT1 (hSGLT1) (human, UniProt P13866)
# Experiment: primary screen, percent of control activity; higher = less effect of the substance
# Design: single well
# Conditions: 50 µM
# Procedure: Two days before the assay, CHO‐wild type and CHO‐hSGLT1 cells were seeded in maintenance medium at 25 000 cells/well in clear‐bottom black 96‐well cell culture plates. Before the assay, cells were washed 3 times with 150 μL/well D‐glucose free DMEM with 0.3% (w/v) BSA. Library compounds at 50 μmol/L (singlicate) prepared in D‐glucose free DMEM with 160 μmol/L 1‐NBD‐glucose and 0.3% (w/v) BSA and negative controls (triplicate) were added at 100 μL/well and placed in a humidified incubator at 37°C with 5% CO2 for 90 minutes. Next, cells were washed 3 times with DMEM with 0.3% (w/v) BSA (150 μL/well). Care was taken to remove all medium after the last wash. Finally, 1‐NBD‐glucose was extracted from the cells by adding 10 μL/well isopropanol and orbital shaking for 5 minutes at 600 rpm, followed by incubation in the dark for 30 minutes. Fluorescence was measured on a Tecan Infinite M200 Microplate Reader (Tecan, Männedorf, Switzerland) with excitation at 445 nm and emission at 525 nm. The amount of 1‐NBD‐glucose taken up by the CHO‐wild type or CHO‐hSGLT1 cells in the presence or absence of test compounds was interpolated from 1‐NBD‐glucose calibration standards. The background uptake by CHO‐wild type was subtracted from the uptake by CHO‐hSGLT1. Background corrected uptake with test compound was expressed as a percentage of corrected uptake without test compound.
row,SMILES,NORMALIZED SGLT1 ACTIVITY (%)
1,CN1CCN(CC(=O)N2c3ccccc3C(=O)Nc3cccnc32)CC1.Cl.Cl,116%
2,CN(C)C(=O)C(CCN1CCC(O)(c2ccc(Cl)cc2)CC1)(c1ccccc1)c1ccccc1.Cl,188%
3,Clc1ccc(COC(Cn2ccnc2)c2ccc(Cl)cc2Cl)cc1.O=[N+]([O-])O (centres unmarked),49%
4,Cl.O=c1n(CCCN2CCN(c3cccc(Cl)c3)CC2)nc2ccccn12,142%
5,C[C@@H]1CC2C3CCC4=CC(=O)C=C[C@]4(C)[C@@]3(F)[C@@H](O)C[C@]2(C)[C@@]1(O)C(=O)COP(=O)([O-])[O-].[Na+].[Na+] (some centres unmarked),99%
6,Br.CN1C2CC[C@H]1C[C@@H](OC(=O)C(O)c1ccccc1)C2 (some centres unmarked),87%
7,CN1CCN(CCCN2c3ccccc3Sc3ccc(Cl)cc32)CC1.O=S(=O)(O)CCS(=O)(=O)O,83%
8,Cl.Cl.Fc1ccc(C(c2ccc(F)cc2)N2CCN(C/C=C/c3ccccc3)CC2)cc1,68%
9,CN(C)CC/C=C1/c2ccccc2COc2ccccc21.Cl,70%
10,Cc1ccccc1C(OCCN(C)C)c1ccccc1.O=C(O)CC(O)(CC(=O)O)C(=O)O (centres unmarked),81%
11,CCCCCCCCCCCCCCCC[n+]1ccccc1.[Cl-],16%
12,CC(C)NC[C@H](O)COc1cccc2ccccc12.Cl,141%
13,CC(C)NCC(O)COc1cccc2ccccc12.Cl (racemic),403%
14,CSc1ccc2c(c1)N(CCC1CCCCN1C)c1ccccc1S2.Cl (centres unmarked),104%
15,Cl.Cl.OCCN1CCN(CCCN2c3ccccc3Sc3ccc(C(F)(F)F)cc32)CC1,90%
16,Cl.Oc1ccc2c3c1OC1[C@@H](O)CC[C@@]4(O)[C@@H](C2)N(CC2CCC2)CC[C@]314 (some centres unmarked),119%
17,CN1C2CCC1CC(OC(c1ccccc1)c1ccccc1)C2.CS(=O)(=O)O (centres unmarked),73%
18,Clc1ccc(CSC(Cn2ccnc2)c2ccc(Cl)cc2Cl)cc1.O=[N+]([O-])O (centres unmarked),64%
19,CCN(CC)CCOc1ccc(/C(=C(\Cl)c2ccccc2)c2ccccc2)cc1.O=C(O)CC(O)(CC(=O)O)C(=O)O,110%
20,Clc1ccc(COC(Cn2ccnc2)c2ccc(Cl)cc2Cl)c(Cl)c1.O=[N+]([O-])O (centres unmarked),65%
21,CN(C)CCCN1c2ccccc2CCc2ccc(Cl)cc21.Cl,39%
22,CN(C)CCN(Cc1cccs1)c1ccccn1.Cl,67%
23,Clc1ccc(CO/N=C(\Cn2ccnc2)c2ccc(Cl)cc2Cl)c(Cl)c1.O=[N+]([O-])O,209%
24,CNCCCC12CCC(c3ccccc31)c1ccccc12.Cl,96%
25,CN[C@H]1CC[C@@H](c2ccc(Cl)c(Cl)c2)c2ccccc21.Cl,5%
26,CNCCC(Oc1ccc(C(F)(F)F)cc1)c1ccccc1.Cl (centres unmarked),103%
27,CN1CCC[C@@H]1CCO[C@](C)(c1ccccc1)c1ccc(Cl)cc1.O=C(O)/C=C/C(=O)O,54%
28,CC/C(=C(\c1ccccc1)c1ccc(OCCN(C)C)cc1)c1ccccc1.O=C(O)CC(O)(CC(=O)O)C(=O)O,108%
29,CCN(CC)CCOC(=O)C1(C2CCCCC2)CCCCC1.Cl,72%
